# Results from the supplement of paper PMC11060735.
# “And” between values parts separate entries of the source, which are not always exact repeats. Equal entries are not always repeated. Structures can show the parent of a compound that is named as a salt. About 50 (3%) of roughly 1,800 compounds showed activity. This is one part of the list.
# Test system: mouse p16Ink4a+/- lung fibroblasts (INKBRITE, bleomycin-injured)
# Test: percentage of GFP+ (p16Ink4a+) fibroblasts among all cells in well; higher = less depletion of p16Ink4a+ cells, active = 20 or less
# Conditions: 1 µM; 3 days
# 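Also: fibroblasts sorted 14 days after bleomycin, GFP+ and GFP− mixed 1:1 in 384-well plates (GFP− as in-well control), imaged after Hoechst and NucView530 staining, reference wells lacked compound.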
row,Compound,percentage of GFP+
1,CS(=O)(=O)N1CCN(Cc2cc3nc(-c4cccc5[nH]ncc45)nc(N4CCOCC4)c3s2)CC1,inactive: 36.8%
2,O=C(O)c1ccccc1Nc1cccc(C(F)(F)F)c1 [Flufenamic Acid],inactive: 46.4%
3,CN(C)N=Nc1[nH]cnc1C(N)=O [Dacarbazine],inactive: 45%
4,Nc1nc2ccc(OC(F)(F)F)cc2s1 [Riluzole],inactive: 43.2%
5,CC(O)C1C(=O)N2C(C(=O)O)=C(SC3CNC(C(=O)N(C)C)C3)C(C)C12 (stereo not drawn) [Meropenem],inactive: 34.6%
6,OC[C@H]1O[C@H](O[C@]2(CCl)O[C@H](CCl)[C@@H](O)[C@@H]2O)[C@H](O)[C@@H](O)[C@H]1Cl [Sucralose],inactive: 45.5%
7,c1ccc(-c2nn3c(c2-c2ccnc4cc(OCCN5CCOCC5)ccc24)CCC3)nc1,inactive: 50.5%
8,COC(=O)[C@H](CCCN=C(N)N)NS(=O)(=O)c1ccc(C)cc1,inactive: 38.8%
9,C[C@H]1COC2=C1C(=O)C(=O)c1c2ccc2c1CCCC2(C)C [Cryptotanshinone],inactive: 40%
10,COc1cc(Nc2ncc(F)c(Nc3ccc4c(n3)NC(=O)C(C)(C)O4)n2)cc(OC)c1OC,inactive: 37.2% and inactive: 37.5%
11,CC(C)N(C[C@H]1O[C@@H](n2cnc3c(N)ncnc32)[C@H](O)[C@@H]1O)C1CC(CCc2nc3cc(C(C)(C)C)ccc3[nH]2)C1 (stereo partly drawn),inactive: 46.6%
12,CCCSc1nc(N[C@@H]2C[C@H]2c2ccc(F)c(F)c2)c2nnn([C@@H]3C[C@H](OCCO)[C@@H](O)[C@H]3O)c2n1 [Ticagrelor],inactive: 30.8%
13,CC(C)OC(=O)C(C(=O)OC(C)C)=C1SC=CS1 [Malotilate],inactive: 28.9%
14,COc1ccc(-c2cc3c(C)nc(N)nc3n([C@H]3CC[C@H](OCCO)CC3)c2=O)cn1,inactive: 41.3%
15,NC(=O)c1cn(Cc2c(F)cccc2F)nn1 [Rufinamide],inactive: 36.1%
16,COc1cc(C(=O)NS(=O)(=O)c2ccccc2C)ccc1Cc1cn(C)c2ccc(NC(=O)OC3CCCC3)cc12 [Zafirlukast],inactive: 47.1%
17,COC(=O)[C@@H]1[C@H]2C[C@H]3c4[nH]c5ccccc5c4CCN3C[C@@H]2CC[C@@H]1O [Yohimbine],inactive: 40%
18,Cn1cc(C2=C(c3cn(CCCSC(=N)N)c4ccccc34)C(=O)NC2=O)c2ccccc21,inactive: 58.4%
19,CC(C)(C)c1cc(/C=C(\C#N)C(N)=S)cc(C(C)(C)C)c1O [Tyrphostin],inactive: 50.3%
20,CC(/C=C/C(=O)NO)=C\[C@@H](C)C(=O)c1ccc(N(C)C)cc1 [Trichostatin A],active: 10.8%
21,Cc1cnc(-c2cc(N3CCN(C(=O)CCS(C)(=O)=O)CC3)ncc2Cl)c(C)c1,inactive: 51.1%
22,CC(=O)[C@H]1CC[C@H]2[C@@H]3C=CC4=CC(=O)CC[C@@]4(C)[C@@H]3CC[C@]12C [Dydrogesterone],inactive: 49%
23,CO[C@@H]1[C@@H](OC(N)=O)[C@@H](O)[C@H](Oc2ccc3c(O)c(NC(=O)c4ccc(O)c(CC=C(C)C)c4)c(=O)oc3c2C)OC1(C)C [Novobiocin],inactive: 41.2%

row,Compound,percentage of GFP+
1,Nc1ncnc2c1c(-c1cccc(OCc3ccccc3)c1)cn2[C@H]1C[C@@H](CN2CCC2)C1,inactive: 42.2%
2,Clc1ccc(C2(c3ccc(-c4cn[nH]c4)cc3)CCNCC2)cc1,inactive: 43.8%
3,COc1ccccc1OCC(O)CO (stereo not drawn) [Guaifenesin],inactive: 38.7%
4,Nc1nc(CC(=O)Nc2ccc(CCNC[C@H](O)c3ccccc3)cc2)cs1 [Mirabegron],inactive: 51.4%
5,Nc1ncnc2c1c(-c1cccc(OCc3ccccc3)c1)cn2[C@H]1C[C@H](CN2CCCC2)C1,inactive: 43.3%
6,CN(C)Cc1cccc(/N=C(\c2ccccc2)c2c(O)[nH]c3cc(C(=O)N(C)C)ccc23)c1,inactive: 40.2%
7,Cc1cc(C)c(/C=C2\C(=O)Nc3ccccc32)[nH]1 [Semaxanib],inactive: 55.4%
8,Cc1cc(C(C)(C)C)c(O)c(C)c1CC1=NCCN1 [Oxymetazoline],inactive: 39.9%
9,CC(C)N(CCCNC(=O)Nc1ccc(C(C)(C)C)cc1)C[C@H]1O[C@@H](n2ccc3c(N)ncnc32)[C@H](O)[C@@H]1O,inactive: 48% and inactive: 54.1%
10,CN(N=O)C(=O)N[C@@H]1[C@@H](O)[C@H](O)[C@@H](CO)O[C@@H]1O [Streptozocin],inactive: 40.8%
11,CN(C)CCCN1c2ccccc2CCc2ccc(Cl)cc21 [Clomipramine],inactive: 45%
12,CC(C)n1cnc2c(NCCc3ccc(O)cc3)nc(-c3csc4ccccc34)nc21 [StemRegenin 1],inactive: 46.4%
13,CC/C(=C(/CC)c1ccc(O)cc1)c1ccc(O)cc1 [Diethylstilbestrol],inactive: 38.5%
14,CC1(C)Cc2c(-c3ccccc3)c(-c3ccc(Cl)cc3)c(CC(=O)O)n2C1 [Licofelone],inactive: 52.2%
15,CCC(=O)O[C@]1(C(=O)CCl)[C@@H](C)C[C@H]2[C@@H]3C[C@H](F)C4=CC(=O)C=C[C@]4(C)[C@@]3(F)[C@@H](O)C[C@@]21C [Halobetasol Propionate],inactive: 43.7%
16,Cc1cccc(C)c1OCC(C)N (stereo not drawn) [Mexiletine],inactive: 46%
17,COc1ccc2c(c1)C(=O)N(CCc1ccc(S(=O)(=O)NC(=O)NC3CCCCC3)cc1)C(=O)C2(C)C [Gliquidone],inactive: 42.7%
18,O=c1c(O)c(-c2ccc(O)c(O)c2)oc2cc(O)cc(O)c12 [Quercetin],inactive: 34.7% and inactive: 42.2%
19,CCCc1cc(C)nc(O)c1CNC(=O)c1cc(-c2ccc(N3CCN(C(C)C)CC3)nc2)cc2c1cnn2C(C)C,inactive: 39.6%
20,COc1cc(F)c(C(C)C)cc1-c1ccc(C(F)(F)F)cc1CN1C(=O)O[C@H](c2cc(C(F)(F)F)cc(C(F)(F)F)c2)[C@@H]1C [Anacetrapib],inactive: 44.7%
21,CC(C)(C#N)c1ccc(N2C(=O)OCc3cnc4ccc(-c5cnc6ccccc6c5)cc4c32)cc1,inactive: 39%
22,CCS(=O)(=O)N1CC(CC#N)(n2cc(-c3ncnc4[nH]ccc34)cn2)C1 [Baricitinib],inactive: 55.6%
23,Nc1ncnc2[nH]cnc12 [Adenine],inactive: 37.5%

row,Compound,percentage of GFP+
1,C[N+](C)(C)C[C@H](O)CC(=O)O [L-carnitine],inactive: 39.4%
2,CCOC(CN1CCN(CC(C)C(=O)c2ccccc2)CC1)c1ccccc1 (stereo not drawn) [Eprazinone],inactive: 41.7%
3,CO[C@@H]1[C@@H](O[C@H]2O[C@@H](C)[C@H](O[C@@H]3C[C@](C)(O)[C@H](O)[C@@H](C)O3)[C@@H](N(C)C)[C@@H]2O)[C@@H](CC=O)C[C@@H](C)[C@@H](O[C@H]2CC[C@H](N(C)C)[C@H](C)O2)/C=C/C=C/C[C@@H](C)OC(=O)C[C@H]1O [Spiramycin],inactive: 35.8%
4,Cc1cc(OCc2nnc(SC3CCCC3)n2-c2cccnc2)ccc1-c1ccc(S(C)(=O)=O)cc1,inactive: 28.6%
5,Cc1cnc(C(=O)O)c[n+]1[O-] [Acipimox],inactive: 36%
6,O=C1NC(=O)/C(=C\c2ccc(-c3ccc(F)cc3)o2)S1,inactive: 52.3%
7,CC(C)Oc1ccc2c(=O)c(-c3ccccc3)coc2c1 [Ipriflavone],inactive: 41.7%
8,CN[C@H](CC(=O)O)C(=O)O [N-methyl-d-aspartic Acid],inactive: 45.9%
9,O=C(N/N=C/c1ccc([N+](=O)[O-])o1)c1ccc(O)cc1 [Nifuroxazide],inactive: 48.3%
10,O=C(c1ccc(Nc2nccc(-c3cc4ccccc4s3)n2)cc1)N1CCC(N2CCCC2)CC1 [IKK-16 (IKK Inhibitor VII)],inactive: 22.3%
11,"CNC(=O)CN(CCN(CCN(CC(=O)O)CC(=O)NC)CC(=O)O)CC(=O)O [Omniscan, Gadodiamide hydrate]",inactive: 35.9%
12,CCOC(=O)[C@H](CCc1ccccc1)N[C@H]1CS[C@H](c2cccs2)CN(CC(=O)O)C1=O [Temocapril],inactive: 45.2%
13,O=S(=O)(O)NC1CCCCC1 [Cyclamic Acid],inactive: 42.8%
14,COc1ccc(O)cc1 [Mequinol],inactive: 56.1%
15,C[C@@H]1C[C@H]2[C@@H]3CCC4=CC(=O)C=C[C@]4(C)[C@@]3(Cl)[C@@H](O)C[C@]2(C)[C@@]1(OC(=O)c1ccco1)C(=O)CCl [Mometasone Furoate],inactive: 37.2%
16,Cc1cc2c(s1)Nc1ccccc1N=C2N1CCN(C)CC1 [Olanzapine],inactive: 48.3%
17,COc1ccccc1N1CCN(CCCNc2cc(=O)n(C)c(=O)n2C)CC1 [Urapidil Hydrochloride],inactive: 47.4%
18,CC(C)c1cc(C(C)C)c(CC(=O)NS(=O)(=O)Oc2c(C(C)C)cccc2C(C)C)c(C(C)C)c1 [Avasimibe],inactive: 53.1%
19,O=C(Nc1cc2cc[nH]c2cn1)c1ccccc1,inactive: 41.5%
20,COc1ccc2cc([C@H](C)C(=O)O)ccc2c1 [Naproxen],inactive: 40.7%
21,c1ccc(-c2[nH]ncc2-c2ccnc3ccccc23)nc1 [4-(3-Pyridin-2-Yl-1h-Pyrazol-4-Yl)Quinoline],inactive: 49.8%
22,CC[C@H](C)C(=O)O[C@H]1C[C@@H](C)C=C2C=C[C@H](C)[C@H](CC[C@@H]3C[C@@H](O)CC(=O)O3)[C@H]21 [Lovastatin],inactive: 33.8%
